# In all, about 33,000 sequences were measured (“E-score (-0.5 to 0.5)”: median about -0.036, highest 2% from about 0.37 on). Some of the results follow.
# Target: T1, Yer064c (UniProt P40041)
# T1 sequence: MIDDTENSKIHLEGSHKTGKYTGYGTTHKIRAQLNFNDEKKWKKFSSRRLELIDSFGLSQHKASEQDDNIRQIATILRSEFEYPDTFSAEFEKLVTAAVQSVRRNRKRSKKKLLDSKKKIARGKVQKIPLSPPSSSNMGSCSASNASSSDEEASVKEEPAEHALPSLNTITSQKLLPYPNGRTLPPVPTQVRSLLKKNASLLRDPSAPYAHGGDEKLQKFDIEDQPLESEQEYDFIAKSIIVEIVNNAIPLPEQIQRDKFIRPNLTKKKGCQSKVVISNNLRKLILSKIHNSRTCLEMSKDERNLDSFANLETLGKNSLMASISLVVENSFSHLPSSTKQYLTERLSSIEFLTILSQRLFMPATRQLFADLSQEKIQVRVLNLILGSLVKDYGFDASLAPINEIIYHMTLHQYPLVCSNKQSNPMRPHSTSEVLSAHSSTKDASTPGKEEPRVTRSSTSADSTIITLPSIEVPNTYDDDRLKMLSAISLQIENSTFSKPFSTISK
# Assay: PBM E-score (8-mer binding enrichment) (E-score (-0.5 to 0.5)); higher = stronger / more preferred TF binding; most listed sequences are background and not binding sites
# Conditions: protein concentration: 200 nM; construct: GST-full length
# How it was run: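 For each ungapped eight-base word taken together with its reverse complement, the Universal PBM Analysis Suite assigned an E-score. Binding data came from GST-tagged yeast transcription factors, applied at about 100-200 nM, on universal all-10-mer Agilent arrays made double-stranded by primer extension. Fluorescent anti-GST marked bound protein, and scans were normalised with masliner.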
row,Sequence,PBM E-score
1,AGAAACCG,-0.116
2,CGCTCTAC,-0.128
3,CAGCGCAC,-0.124
4,ATTGCCGG,-0.217
5,AGGCTCGG,-0.141
6,TATTGGAA,-0.0853
7,ACTTTACA,0.00299
8,CCCGACTA,0.314
9,CGGATAAA,0.0163
10,TCGGGAAA,-0.00439
11,GTCTAATA,0.0559
12,AAACGCAT,-0.14
13,TATGATAA,0.137
14,ATTTGACA,0.174
15,CCATCCGA,0.161
16,ATAATCAA,0.269
17,CGGCGGAG,0.00393
18,GCAATTTA,-0.0541
19,AGAGTGCC,-0.159
20,CTAAGGGC,0.00672
21,AAAGTAGA,0.062
22,GATCGCTA,-0.333
23,GCACTGGA,0.0647
24,CTCGACGA,-0.0175
25,CCTGCTCG,-0.315

row,Sequence,PBM E-score
1,GCCAATCC,-0.228
2,CTCAGGGA,-0.0606
3,ATGCGGCA,-0.212
4,ACGTATAG,0.0423
5,GACTAAAA,0.429
6,AACTTACC,-0.0315
7,CTAACAAC,0.044
8,GTTTCCAA,-0.0568
9,ATAGGATA,-0.268
10,ATGCGCAG,-0.196
11,GGGTCAAA,-0.0891
12,AGTCCCTA,0.162
13,CGGGGCGC,-0.284
14,ACGGCGGG,-0.0298
15,GGAGCAAA,-0.0323
16,TTCAGAAA,-0.0758
17,CAAGCCTC,-0.0532
18,CCAAACCC,-0.148
19,ATGTAATG,0.119
20,AACAGGCC,-0.292
21,AAGTTTCG,-0.0453
22,AAGTGATA,-0.108
23,TAATTGGA,0.0568
24,ACCTCAAT,-0.0727
25,CGATCAGA,-0.00178

row,Sequence,PBM E-score
1,CGAATATA,-0.0703
2,AGTACTTG,0.106
3,CTCCAGGA,0.111
4,GCCGATAA,-0.264
5,CGGGCACA,-0.212
6,CACGGAGA,-0.13
7,AACATGTT,-0.0253
8,TAAAATCA,0.282
9,CGACCGCC,-0.228
10,AATATCGA,0.0795
11,CTCATATA,0.0515
12,CGCATCCC,-0.317
13,GTTAAGTA,0.0558
14,AAACTATT,-0.145
15,GATCCGGC,-0.0809
16,CGCCGGTA,-0.138
17,CACGGGAG,-0.133
18,CAGCCGAA,-0.0452
19,ACGGGCCT,-0.363
20,CGCGAAAC,0.0297
21,CGTACGTA,0.0559
22,AGCGCAGA,-0.146
23,GCATTCCA,-0.265
24,AAAACTAA,0.134
25,ATGGTGAA,-0.203

row,Sequence,PBM E-score
1,CTGATGCA,0.0201
2,ATGAATCC,0.253
3,ATCTTTAG,0.102
4,ACAGCGAT,-0.101
5,CGTCCTGC,-0.214
6,CGATGACC,0.216
7,CCGATGAC,0.266
8,CCACTCGG,-0.312
9,TATACGCA,-0.00117
10,AGTCGCGC,0.356
11,CAAACAGA,0.0255
12,ATTCCGCC,-0.0602
13,ACCAATTC,-0.024
14,CGGCTCCA,-0.165
15,CCAGTGCG,-0.191
16,CATGTTGC,-0.0111
17,ATCTAGGA,0.0758
18,ATGATAAG,0.0215
19,AATAAGGT,-0.11
20,ACAAGCGT,-0.138
21,GCAGGAGA,-0.186
22,ACCACTTA,0.0242
23,CAGGTCGG,-0.196
24,GACCCAGC,-0.146
25,CTTATTGA,0.255

row,Sequence,PBM E-score
1,CTATCCGC,0.00533
2,ATACTACG,-0.0971
3,AGCGGGCG,-0.377
4,CAGCCATC,-0.0368
5,GCGTCTAC,-0.229
6,ACCCGTAT,-0.133
7,AGATTCTA,-0.047
8,CAAAGTAC,0.155
9,CACGAATA,0.0279
10,AATTAAAC,0.156
11,GCAAGGAA,-0.13
12,AGGCTTAG,-0.211
13,ACTACCAT,0.261
14,ACTAGGGA,-0.0656
15,AGATGGGC,-0.0771
16,TAGTAATA,0.193
17,AAGCTTAT,-0.163
18,CCATTCGG,0.00253
19,AAGAGACT,0.264
20,AACAACAC,-0.00491
21,AGATATCT,0.0912
22,CTCGGTAA,-0.0279
23,CATCAATA,0.00965
24,CGAAACCA,-0.00384
25,ACCGATAT,-0.109

row,Sequence,PBM E-score
1,AACATTAC,0.0977
2,ACAAACGC,-0.195
3,CAATAGGA,-0.157
4,CGAACCCG,-0.197
5,ACGCCGAA,0.0741
6,ACACCAAT,-0.0406
7,CCTCCGGC,-0.209
8,ACCAGGAT,-0.00897
9,TCCTGACA,-0.0281
10,CTATATGA,0.256
11,CCTCTACG,-0.0992
12,GCAGATCA,-0.0804
13,AATTACAC,-0.115
14,ATCGTATA,0.0263
15,CAAGTGCA,-0.0407
16,AAACCAAC,-0.0381
17,ATTATAGG,0.0127
18,ATGGCGGC,-0.0869
19,ACTGACCA,-0.0902
20,CAATAAGG,-0.179
21,GCAATTAC,-0.0747
22,TAATCAAA,0.315
23,AAACCTAT,-0.218
24,AGGCAACA,-0.231
25,TCGCACAA,0.169

row,Sequence,PBM E-score
1,AGGCGGAA,0.0617
2,GGGCGGTA,-0.3
3,ATGTAGGC,-0.332
4,ATACATTG,-0.0381
5,GCGGACTA,0.294
6,CGAATTAG,-0.0039
7,GGGTATAC,0.00654
8,CACCTTCG,0.101
9,TCGCTGAA,0.113
10,CGCACCAC,-0.221
11,CTACTTCA,0.0506
12,AACGTGCG,-0.197
13,ATAAGTGG,0.143
14,ATTCAGGC,-0.0938
15,CCAACCCA,-0.136
16,ACGACCAT,-0.106
17,CCACGGTC,-0.184
18,GGCGCTAC,-0.135
19,AAAGGCGA,-0.021
20,CGGATCGA,-0.00898
21,ACACGGTG,-0.12
22,GTGCATCA,-0.12

# — the supplement of paper PMC3334620
